# Source: publication PMC5101189
# For part of its entries the source gives two or more results. The list is limited to them. The source may hold further records. Some entries list several cross-links; each record is another pair of residues.
# How the values were obtained:
# Assay in all cases: cross-linking mass spectrometry
# Settings in all cases: BS3, purified complex
# SPC25 = SPC25 (UniProt Q9HBM1)
# NUF2 = NUF2 (UniProt Q9BZD4)
# DSN1 = DSN1 (UniProt Q9H410)
# MIS12 = MIS12 (UniProt Q9H081)
# NSL1 = NSL1 (UniProt Q96IY1)
# KNL1 = KNL1 (UniProt Q8NG31)
# Chain of UniProt Q8NG31 (Q8NG31 whole entry): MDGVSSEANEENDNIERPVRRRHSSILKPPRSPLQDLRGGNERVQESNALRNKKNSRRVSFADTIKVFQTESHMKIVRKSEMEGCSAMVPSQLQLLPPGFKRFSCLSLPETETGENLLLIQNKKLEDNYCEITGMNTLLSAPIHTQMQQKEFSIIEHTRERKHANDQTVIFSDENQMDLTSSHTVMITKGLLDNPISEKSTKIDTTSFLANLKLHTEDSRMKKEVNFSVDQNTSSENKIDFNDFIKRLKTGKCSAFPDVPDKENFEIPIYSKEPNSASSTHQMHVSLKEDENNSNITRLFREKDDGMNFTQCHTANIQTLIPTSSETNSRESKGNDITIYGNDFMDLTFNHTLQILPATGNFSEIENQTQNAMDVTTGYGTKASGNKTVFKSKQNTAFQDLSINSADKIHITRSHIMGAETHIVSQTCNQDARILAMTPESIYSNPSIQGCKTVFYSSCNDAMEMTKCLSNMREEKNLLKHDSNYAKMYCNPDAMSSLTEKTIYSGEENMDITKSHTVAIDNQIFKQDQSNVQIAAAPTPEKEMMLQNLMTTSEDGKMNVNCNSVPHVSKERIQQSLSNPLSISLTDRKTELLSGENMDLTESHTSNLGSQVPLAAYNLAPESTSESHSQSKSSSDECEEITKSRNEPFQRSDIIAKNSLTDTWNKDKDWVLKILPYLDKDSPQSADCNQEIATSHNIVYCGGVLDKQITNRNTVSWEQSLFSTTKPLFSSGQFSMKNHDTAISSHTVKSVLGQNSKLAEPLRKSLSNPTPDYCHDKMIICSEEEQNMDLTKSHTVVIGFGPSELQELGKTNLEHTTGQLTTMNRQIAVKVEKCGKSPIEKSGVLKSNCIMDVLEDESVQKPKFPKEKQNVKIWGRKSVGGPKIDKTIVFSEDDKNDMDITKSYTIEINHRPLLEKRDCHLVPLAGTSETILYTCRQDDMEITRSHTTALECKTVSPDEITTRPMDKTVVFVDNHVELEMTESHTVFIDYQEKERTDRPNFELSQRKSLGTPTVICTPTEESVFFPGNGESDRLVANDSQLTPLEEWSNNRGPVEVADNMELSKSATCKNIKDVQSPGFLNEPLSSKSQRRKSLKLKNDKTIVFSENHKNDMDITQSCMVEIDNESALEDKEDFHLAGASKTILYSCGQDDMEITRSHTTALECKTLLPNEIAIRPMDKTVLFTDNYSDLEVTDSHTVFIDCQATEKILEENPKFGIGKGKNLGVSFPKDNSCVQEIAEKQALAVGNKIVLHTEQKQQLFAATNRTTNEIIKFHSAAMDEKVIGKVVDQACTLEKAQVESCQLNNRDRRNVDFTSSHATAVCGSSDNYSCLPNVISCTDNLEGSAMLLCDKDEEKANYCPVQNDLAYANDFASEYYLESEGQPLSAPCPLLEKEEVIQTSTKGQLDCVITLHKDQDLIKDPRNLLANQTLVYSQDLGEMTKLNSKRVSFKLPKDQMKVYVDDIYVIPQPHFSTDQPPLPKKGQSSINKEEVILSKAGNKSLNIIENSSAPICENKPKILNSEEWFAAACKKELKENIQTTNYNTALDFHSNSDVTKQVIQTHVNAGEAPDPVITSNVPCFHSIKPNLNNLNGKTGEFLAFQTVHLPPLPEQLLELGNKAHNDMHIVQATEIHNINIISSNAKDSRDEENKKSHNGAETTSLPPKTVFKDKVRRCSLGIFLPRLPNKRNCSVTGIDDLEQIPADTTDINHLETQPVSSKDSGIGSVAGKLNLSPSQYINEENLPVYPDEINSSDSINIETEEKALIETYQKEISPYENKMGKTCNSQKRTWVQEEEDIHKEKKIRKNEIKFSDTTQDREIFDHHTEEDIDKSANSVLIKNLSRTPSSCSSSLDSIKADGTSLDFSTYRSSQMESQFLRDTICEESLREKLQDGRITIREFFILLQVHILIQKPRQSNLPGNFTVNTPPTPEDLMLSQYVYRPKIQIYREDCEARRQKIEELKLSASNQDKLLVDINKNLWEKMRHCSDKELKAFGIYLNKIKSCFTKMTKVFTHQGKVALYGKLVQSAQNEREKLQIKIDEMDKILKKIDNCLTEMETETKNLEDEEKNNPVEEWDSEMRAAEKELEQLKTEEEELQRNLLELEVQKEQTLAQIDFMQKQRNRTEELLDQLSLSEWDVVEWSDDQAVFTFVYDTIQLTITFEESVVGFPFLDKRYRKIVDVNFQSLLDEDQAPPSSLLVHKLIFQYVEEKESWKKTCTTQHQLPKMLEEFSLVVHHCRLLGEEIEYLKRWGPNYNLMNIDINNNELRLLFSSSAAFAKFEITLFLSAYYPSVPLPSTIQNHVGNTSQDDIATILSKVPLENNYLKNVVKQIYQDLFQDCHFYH
# Chain of PMF1 (Q6P1K2 whole entry): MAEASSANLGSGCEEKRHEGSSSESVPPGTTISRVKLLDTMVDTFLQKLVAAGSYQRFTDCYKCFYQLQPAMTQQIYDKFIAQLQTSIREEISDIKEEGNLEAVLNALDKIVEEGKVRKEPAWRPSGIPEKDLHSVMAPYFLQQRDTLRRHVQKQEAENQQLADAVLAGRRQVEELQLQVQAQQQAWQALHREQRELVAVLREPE
# Chain of ZWINT (O95229 whole entry): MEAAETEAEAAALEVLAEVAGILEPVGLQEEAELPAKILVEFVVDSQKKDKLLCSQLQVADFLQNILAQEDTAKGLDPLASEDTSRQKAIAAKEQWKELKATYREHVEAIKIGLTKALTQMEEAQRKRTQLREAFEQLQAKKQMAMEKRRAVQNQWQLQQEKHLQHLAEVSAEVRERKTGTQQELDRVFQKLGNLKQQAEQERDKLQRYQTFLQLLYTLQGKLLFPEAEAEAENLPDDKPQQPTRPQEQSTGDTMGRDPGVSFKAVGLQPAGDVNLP
# Chain of SPC24 (Q8NBT2 whole entry): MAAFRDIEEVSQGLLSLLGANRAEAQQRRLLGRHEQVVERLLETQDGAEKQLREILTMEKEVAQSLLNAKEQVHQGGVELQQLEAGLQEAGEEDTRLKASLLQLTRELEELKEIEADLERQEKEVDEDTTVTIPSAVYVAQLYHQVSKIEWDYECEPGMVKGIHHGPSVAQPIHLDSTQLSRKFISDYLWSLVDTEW
# Chain of NUF2 (Q9BZD4 whole entry): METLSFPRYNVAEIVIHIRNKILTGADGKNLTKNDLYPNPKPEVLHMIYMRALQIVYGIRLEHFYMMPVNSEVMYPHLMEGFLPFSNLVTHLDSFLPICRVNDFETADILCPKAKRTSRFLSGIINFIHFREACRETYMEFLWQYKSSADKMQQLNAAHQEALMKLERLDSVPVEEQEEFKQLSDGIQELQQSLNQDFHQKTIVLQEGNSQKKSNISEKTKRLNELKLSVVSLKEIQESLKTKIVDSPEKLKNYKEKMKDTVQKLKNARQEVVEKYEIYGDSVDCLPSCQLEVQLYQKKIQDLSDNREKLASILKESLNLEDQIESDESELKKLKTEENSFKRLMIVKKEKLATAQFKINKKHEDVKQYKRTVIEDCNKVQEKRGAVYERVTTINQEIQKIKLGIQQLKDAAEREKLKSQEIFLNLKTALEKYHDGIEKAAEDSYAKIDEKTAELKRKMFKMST
# Chain of NUF2, Q9BZD4 (Q9BZD4 whole entry): as above
# Chain of UniProt Q9HBM1 (Q9HBM1 whole entry): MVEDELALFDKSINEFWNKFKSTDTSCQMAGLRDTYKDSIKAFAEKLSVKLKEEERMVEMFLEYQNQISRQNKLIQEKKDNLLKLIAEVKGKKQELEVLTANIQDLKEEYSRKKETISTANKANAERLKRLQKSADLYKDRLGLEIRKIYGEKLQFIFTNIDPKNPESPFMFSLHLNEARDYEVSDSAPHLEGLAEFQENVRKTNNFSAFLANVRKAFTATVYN
# Chain of UniProt Q9H410 (Q9H410 whole entry): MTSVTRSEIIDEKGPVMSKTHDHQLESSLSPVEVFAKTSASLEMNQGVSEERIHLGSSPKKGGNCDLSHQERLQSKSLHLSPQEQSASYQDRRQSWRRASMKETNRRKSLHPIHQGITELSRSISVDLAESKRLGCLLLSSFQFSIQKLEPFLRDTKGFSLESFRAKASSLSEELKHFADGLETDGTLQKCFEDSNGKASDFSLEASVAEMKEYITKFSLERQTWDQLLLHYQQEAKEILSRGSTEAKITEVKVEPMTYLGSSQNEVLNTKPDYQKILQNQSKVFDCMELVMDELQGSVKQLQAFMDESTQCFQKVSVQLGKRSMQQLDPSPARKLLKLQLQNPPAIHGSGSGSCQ
# Chain of NDC80 (O14777 whole entry): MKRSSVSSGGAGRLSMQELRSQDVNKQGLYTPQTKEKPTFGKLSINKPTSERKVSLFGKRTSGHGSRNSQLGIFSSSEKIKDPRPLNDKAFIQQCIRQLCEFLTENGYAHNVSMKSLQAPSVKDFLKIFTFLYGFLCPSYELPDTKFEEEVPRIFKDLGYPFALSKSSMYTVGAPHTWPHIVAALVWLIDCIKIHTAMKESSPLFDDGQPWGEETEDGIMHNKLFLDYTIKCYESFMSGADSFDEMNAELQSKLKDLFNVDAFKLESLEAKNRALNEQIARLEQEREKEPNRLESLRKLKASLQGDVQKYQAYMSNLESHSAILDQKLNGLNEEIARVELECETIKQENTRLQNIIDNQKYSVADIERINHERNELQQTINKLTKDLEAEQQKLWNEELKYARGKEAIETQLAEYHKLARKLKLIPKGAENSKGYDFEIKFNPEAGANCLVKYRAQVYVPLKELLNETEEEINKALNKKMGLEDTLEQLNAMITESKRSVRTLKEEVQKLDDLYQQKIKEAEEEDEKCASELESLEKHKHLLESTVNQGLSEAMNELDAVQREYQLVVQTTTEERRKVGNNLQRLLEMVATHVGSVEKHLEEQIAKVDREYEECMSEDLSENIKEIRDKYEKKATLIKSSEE
# Chain of MIS12, Q9H081 (Q9H081 whole entry): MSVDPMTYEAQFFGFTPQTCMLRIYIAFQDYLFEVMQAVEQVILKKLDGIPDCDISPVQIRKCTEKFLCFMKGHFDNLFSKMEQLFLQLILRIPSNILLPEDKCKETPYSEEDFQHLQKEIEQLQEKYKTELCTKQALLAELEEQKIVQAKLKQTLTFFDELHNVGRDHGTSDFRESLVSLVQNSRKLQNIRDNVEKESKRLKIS
# Chain of MIS12 (Q9H081 whole entry): as above
substance,measurement,setting,value
"NDC80, O14777",cross-linked residues,SPC25,K598 - K21 and K606 - K19 and K606 - K21 and K629 - K41 and K638 - K73
"SPC24, Q8NBT2",cross-linked residues,NUF2,K50 - K458 and K50 - K461
same,cross-linked residues,SPC25,K98 - K84 and K98 - K92 and K98 - K93
"CENPC, Q03188",cross-linked residues,NUF2,K91 - K250 and K128 - K259
"NUF2, Q9BZD4",cross-linked residues,SPC25,K456 - K21 and K456 - K37 and K456 - K46 and K461 - K46 and K461 - K50 and K461 - K52
"PMF1, Q6P1K2",cross-linked residues,DSN1,K116 - K61 and K131 - K217 and K154 - K61 and K154 - K248
same,cross-linked residues,MIS12,K63 - K62 and K110 - K103 and K116 - K103 and K154 - K135
same,cross-linked residues,NSL1,K116 - K127 and K154 - K149
"NSL1, Q96IY1",cross-linked residues,DSN1,K127 - K61 and K132 - K237 and K149 - K61 and K149 - K248 and K231 - K322 and K262 - K322 and K268 - K315 and K268 - K322
same,cross-linked residues,MIS12,K127 - K103 and K227 - K203 and K268 - K197
"ZWINT, O95229",cross-linked residues,KNL1,K51 - K2033 and K116 - K2043 and K239 - K2118 and K264 - K2118
"MIS12, Q9H081",cross-linked residues,DSN1,K103 - K61 and K129 - K248 and K129 - K253 and K197 - K315 and K200 - K315 and K203 - K315
